Laboratory results taken from PubChem BioAssay AID651597 (National Center for Advancing Translational Sciences (NCATS), 2012).
The whole screen tested about 1,100 compounds, of which about 390 (35%) were called active. The inconclusive results got no clear call from the source; some entries with a clear call stand among them for comparison. The call rests on the fitted dose curve; in most records, active means well fitted inhibition curve with a large enough effect; inconclusive means small, poorly fitted or top-dose-only effect; inactive means flat fitted curve, though single readings scatter. Potencies of inconclusive entries are doubtful fits and often do not repeat.
Further: nearly all actives have a fitted effect of over 65% in size.
On the % scale 0 is the no-effect control and ±100 the full control effect; potency means the concentration at half of the fitted maximal effect; tags describe the fitted curve by direction and shape.

These molecules were tested against Luciferin 4-monooxygenase (Photinus pyralis) (UniProt P08659) (assay: qHTS of Nrf2 Activators: Hit Validation in Secondary FLuc Assay). Conditions: firefly luciferase inhibition counter-screen, luminescence; series mostly up to 57.5 µM; activity, negative = inhibition: at the top concentration.
Source text: Many diseases have some form of oxidative stress injury and ties to inflammation, causing a host of problems for the patient. The antioxidant response element (ARE) plays an important role in alleviating the harmful effects of oxidative stress. The antioxidant response element (ARE) is a transcriptional regulatory element involved in the activation of genes coding for a number of antioxidant proteins and detoxifying enzymes. These enzymes work in concert to protect tissues from oxidative insults and chemical toxicities in human hepatocytes and immune cells. The protective effects of ARE activation are primarily triggered through Nrf2 (NF-E2-related factor) binding to and activating AREs. It is known that Nrf2 controls the production of over 250 antioxidant and detoxification proteins (Hu et al., 2006), thereby protecting tissues by increasing cellular antioxidant content and suppressing inflammatory signaling pathways. The transcription factor Nrf2 is a central link between oxidative chemicals, such as phenolic antioxidants and electrophilic compounds, and the activation of ARE. Nrf2 levels are constitutively low as a consequence of its interaction with Keap1, which targets its degradation (Zipper and Mulcahy, 2002). Electrophiles react with key cysteine residues in Keap1, releasing Nrf2 and allowing its translocation to the nucleus. Once within the nucleus, Nrf2 complexes with coactivators such as p300, and binds to the AREs to induce gene transcription of cytoprotective enzymes, resulting in the prevention of toxicity. Activation of Nrf2 protects tissues by increasing cellular antioxidant content and suppressing inflammatory signaling pathways. Identifying novel and potent Nrf2 activators by using the AREc32 cell line to detect ARE activation by small molecules will lead to the identification and development of probes to study protective pathways in multiple tissues. These specific probes are essential to study the ARE pathway, and eventually to determine whether this pathway does activate genes that could protect against a host of diseases, including cardiovascular diseases, obesity, diabetes, Alzheimer's, and Parkinson's disease.
This project's aim is to identify novel and potent Nrf2 activators by using the AREc32 cell line to detect ARE activation by small molecules, which will lead to the identification and development of probes to study the ARE pathway. In this counter assay, we aim to identify false positive as identified from this primary assay using an FLuc assay with an inhibiting read-out.
NIH Chemical Genomics Center [NCGC]
NIH Molecular Libraries Probe Centers Network [MLPCN]
Assay Submitter (PI): Curtis Klaassen, University of Kansas Medical Center
Assess whether an activator in the primary assay potentially causes such activation by inhibitor-induced stabilization of the firefly luciferase reporter enzyme by determining whether it inhibits firefly luciferase in the presence of Km concentrations of its substrates (ATP and D-luciferin).
O=C(O)c1ccc(/C=C2\COc3ccccc3C2=O)cc1 was tested, and the Potency was active: 9.53 µM. In the case of O=[N+]([O-])c1ccc(Cl)c(/C=N/n2c(-c3ccncc3)n[nH]c2=S)c1, the Potency is reported as active: 1.9 µM. In the case of O=C(Nc1ccc2ccccc2c1)c1ccc(Br)o1, the Potency is reported as active: 1.2 µM. For O=C(CC(=O)Nc1ccccc1[N+](=O)[O-])Nc1ccccc1[N+](=O)[O-], the “activity, negative = inhibition” value was inactive: 0.965%. For c1ccc(-c2cc3c(-n4cccc4)ncnc3o2)cc1, the Potency was inconclusive: 15.1 µM [inhibitor, partial curve]. In the case of S=c1[nH]nc(-c2ccncc2)n1/N=C/C=C/c1ccco1, the Potency is reported as inconclusive: 10.7 µM [inhibitor, partial curve]. N#Cc1sc2nc(-c3ccccc3)cc(C(F)(F)F)c2c1N was tested, and the “activity, negative = inhibition” value was inactive: -16.1%. For Cc1ccc2nsnc2c1NC(=S)NC(=O)c1ccco1, the “activity, negative = inhibition” value was inactive: -3.95%. With O=C(CSc1ncnc2c1oc1ccccc12)c1cccs1 the Potency was inconclusive: 1.69 µM [inhibitor, full curve]. Oc1ccccc1C1CC(c2cccs2)=NC(c2ccc(Cl)cc2)N1 (stereo not given) was tested, and the Potency was inconclusive: 23.9 µM [inhibitor, single point]. In the case of O=C(Nc1cccc2ncccc12)c1ccc(Cl)cc1, the Potency is reported as inconclusive: 37.9 µM [inhibitor, single point]. For COc1ccc2c(c1)C1=NN(/C(C)=C/C(C)=O)C(c3cccc(F)c3)C1CC2 (stereo not given), the Potency was inconclusive: 30.1 µM [inhibitor, single point]. With C#CCn1c(=NC(=O)c2cccs2)sc2cccc(OC)c21 the Potency was inconclusive: 7.57 µM [inhibitor, partial curve]. For Cn1c(/C=C/c2cccc([N+](=O)[O-])c2)c([N+](=O)[O-])c(=O)n(C)c1=O, the Potency was inconclusive: 21.3 µM [inhibitor, single point]. With O=c1c2ccccc2oc2ccc(-c3ccc4cc[nH]c4c3)cc12 the Potency was active: 0.135 µM. Brc1ccc(-c2csc(N/N=C/c3ccco3)n2)cc1 was tested, and the Potency was inconclusive: 6.01 µM [inhibitor, partial curve]. CC(C)Cc1cc(-c2ccco2)c(C#N)c(N)n1 was tested, and the “activity, negative = inhibition” value was inactive: -13.5%. With COC(=O)c1sccc1NC(=O)c1cccc(OC)c1 the Potency was inconclusive: 37.9 µM [inhibitor, single point]. Nc1ccc2c(Cl)cc(Cl)cc2c1 was tested, and the Potency was inconclusive: 23.9 µM [inhibitor, single point]. For COC(=O)[C@@]1(Sc2ccc(C)cc2)CC(=O)N(C(=O)/C=C/c2ccccc2)[C@@H]1c1ccccc1, the “activity, negative = inhibition” value was inactive: -4.35%. In the case of N#Cc1ccc(-c2ccco2)nc1SCc1ccccc1, the Potency is reported as inconclusive: 21.3 µM [inhibitor, single point]. For Cc1csc(NC(=S)NC(=O)c2ccccc2)n1, the Potency was active: 2.13 µM. With O=C(Nc1cccc(F)c1)c1cc(-c2ccco2)nc2ccccc12 the Potency was inconclusive: 21.3 µM [inhibitor, single point]. In the case of Cc1nn(-c2cccc(C(F)(F)F)c2)c(=O)c2ccccc12, the “activity, negative = inhibition” value is reported as inactive: -29.2%. In the case of Cc1ccc2c(N)c(C(=O)c3ccccc3)sc2n1, the Potency is reported as active: 9.53 µM. Cc1ccc(C)c(NC(=O)COC(=O)c2cc(=O)c3ccccc3o2)c1 was tested, and the “activity, negative = inhibition” value was inactive: -12%. In the case of Nc1c(C(=O)C2CC2)sc2nc(-c3cccs3)cc(C(F)(F)F)c12, the “activity, negative = inhibition” value is reported as inactive: -23.9%. For Cc1cc(=O)oc2c(C(=O)/C=C/c3ccccc3)c(O)ccc12, the “activity, negative = inhibition” value was inactive: 2.7%. O=C1Nc2ccccc2/C1=C/c1ccccc1Cl was tested, and the Potency was inconclusive: 13.5 µM [inhibitor, partial curve]. With CN1CCN(S(=O)(=O)c2ccc(Sc3nnnn3-c3ccccc3)c([N+](=O)[O-])c2)CC1 the “activity, negative = inhibition” value was inactive: -15.7%. For COC(=O)c1c(NC(=O)/C=C/c2ccco2)sc2c1CCC2, the Potency was inconclusive: 37.9 µM [inhibitor, single point]. For O=C1C(=Cc2ccccc2Cl)CCc2ccccc21, the Potency was active: 0.169 µM. With O=[N+]([O-])c1cccc2ccc(/C=C/c3cccc(Br)c3)nc12 the Potency was inconclusive: 3.79 µM [inhibitor, full curve]. In the case of O=C(CSc1ncnc2c1oc1ccccc12)NCc1ccco1, the Potency is reported as inconclusive: 21.3 µM [inhibitor, single point]. With O=C(Nc1ccc2nsnc2c1)c1cccs1 the Potency was inconclusive: 19 µM [inhibitor, single point]. In the case of COc1ccccc1CC1S/C(=N/N=C/c2ccco2)NC1=O (stereo not given), the Potency is reported as inconclusive: 15.1 µM [inhibitor, partial curve, poor fit]. C=C1C(=O)[C@]23C[C@H]1CCC2[C@@]1(C)C(C[C@@H]3O)[C@](C)(C(=O)O)CC[C@@H]1O (stereo not given in full) was tested, and the Potency was inconclusive: 15.1 µM [inhibitor, partial curve]. With Cc1cc(Br)cn2c(Cc3ccccc3)c(-c3ccco3)nc12 the Potency was active: 9.53 µM. CC(/C=N/n1c(-c2ccc(Cl)cc2)n[nH]c1=S)=C\c1ccco1 was tested, and the Potency was inconclusive: 15.1 µM [inhibitor, partial curve]. In the case of COc1ccc(Br)cc1/C=N/Nc1ccccn1, the “activity, negative = inhibition” value is reported as inactive: -22.8%. O=[N+]([O-])c1ccc(Cl)cc1N/N=C/c1ccncc1 was tested, and the Potency was inconclusive: 9.53 µM [inhibitor, partial curve]. CC(=O)c1sc(Nc2ccccc2)nc1C was tested, and the Potency was inconclusive: 15.1 µM [inhibitor, partial curve]. For O=C1CC(c2ccco2)CC(O)=C1C=Nc1cc(Cl)ccc1O (stereo not given), the Potency was inconclusive: 15.1 µM [inhibitor, partial curve]. With O=C(CNC(=S)NC(=O)c1ccccc1Br)c1ccccc1 the “activity, negative = inhibition” value was inactive: -2.89%. In the case of COc1ccccc1-c1cc(C(F)(F)F)nc(S(=O)(=O)CCCC(=O)NCc2ccc(F)cc2)n1, the Potency is reported as inconclusive: 15.1 µM [inhibitor, partial curve]. O=C(Nc1nnc(-c2cccs2)s1)c1cccc(F)c1 was tested, and the Potency was active: 2.39 µM. For C=C1C2=C(C(=O)N1OC)[C@@H](O)[C@@](C)(O)[C@@H](CCCCC)O2, the “activity, negative = inhibition” value was inactive: 1.91%. In the case of O=C(Nc1ccc(F)cc1F)c1cc(-c2ccco2)nc2ccccc12, the Potency is reported as active: 6.75 µM. In the case of Cc1ccc(Cn2c(/C=C/c3ccco3)nc3ccccc32)cc1, the Potency is reported as active: 6.01 µM. For c1ccc(N/N=C2\CCCc3ccccc32)nc1, the Potency was inconclusive: 13.5 µM [inhibitor, partial curve]. O=C(Nc1c(Br)cc2c(c1Br)Cc1ccccc1-2)C(F)(F)F was tested, and the “activity, negative = inhibition” value was inactive: -22.6%. For COC(CN(C(=O)CCl)C(C(=O)NC1CCCCC1)c1ccccc1C)OC (stereo not given), the “activity, negative = inhibition” value was inactive: -0.975%. In the case of CC(=O)NCCNc1nc2cc(-c3cscc3C)sc2c(=O)n1C, the Potency is reported as inconclusive: 26.9 µM [inhibitor, single point]. With Cc1nc(NC(=O)c2ccc(Br)o2)ccc1Br the Potency was active: 9.53 µM. For Cn1c(N/N=C/c2cccs2)cc(=O)n(C)c1=O, the Potency was inconclusive: 37.9 µM [inhibitor, single point]. With CCc1cc2c(NCc3ccco3)ncnc2s1 the “activity, negative = inhibition” value was inactive: -4.96%. With O=c1oc2ccccc2cc1-c1nc(-c2cccs2)cs1 the Potency was inconclusive: 9.53 µM [inhibitor, partial curve]. With Brc1ccccc1C1N=C(c2ccccc2)NO1 (stereo not given) the Potency was active: 1.35 µM. With O=C(c1ccccc1)[C@@H]1[C@@H]2C(=O)N(c3ccc(F)cc3)C(=O)[C@@H]2C2CCCN21 (stereo not given in full) the Potency was inconclusive: 37.9 µM [inhibitor, single point]. For Cc1ccc2nc(/C(C#N)=C\c3ccc([N+](=O)[O-])o3)[nH]c2c1, the Potency was active: 8.49 µM. With O=C(c1ccc(S(=O)(=O)Cc2cc(F)ccc2F)c([N+](=O)[O-])c1)N1CCCC1 the Potency was inconclusive: 13.5 µM [inhibitor, partial curve]. In the case of COC(=O)c1ccccc1NC(=O)c1cccs1, the “activity, negative = inhibition” value is reported as inactive: -1.86%. For Cc1cc(NCc2ccco2)n2c(nc3ccccc32)c1C#N, the “activity, negative = inhibition” value was inactive: -6.56%. For CCOC(=O)c1c(-c2ccco2)csc1NC(=O)CSc1nnc(N)s1, the Potency was inconclusive: 21.3 µM [inhibitor, partial curve]. For COc1ccc(NC(=O)c2cc(-c3cccs3)on2)c(OC)c1, the “activity, negative = inhibition” value was inactive: -23.9%. O=C(NCCc1c[nH]c2ccccc12)c1ccc([N+](=O)[O-])o1 was tested, and the “activity, negative = inhibition” value was inactive: -26.1%. O=C(Nc1cnc2ccccc2c1)c1ccco1 was tested, and the Potency was active: 1.35 µM. In the case of OCCC#Cc1c(-c2ccsc2)sc2ccccc12, the Potency is reported as inconclusive: 26.9 µM [inhibitor, single point]. For C=CCn1c(SCC(C)=O)nc2scc(-c3ccco3)c2c1=O, the Potency was inconclusive: 10.7 µM [inhibitor, partial curve]. COC(=O)c1sccc1NC(=O)Nc1ccc(Cl)c(Cl)c1 was tested, and the Potency was inconclusive: 0.953 µM [inhibitor, full curve]. For O=C1CSC(=S)N1Cc1cccnc1, the Potency was inconclusive: 23.9 µM [inhibitor, single point]. In the case of O=C(O)c1ccc(-n2ncc(Cl)c(Cl)c2=O)cc1, the “activity, negative = inhibition” value is reported as inactive: 4.91%. With Cc1cc(C)c2c(NC(=S)NC(=O)c3ccccc3)nn(C)c2n1 the “activity, negative = inhibition” value was inactive: 0.252%. COC(=O)c1ccccc1NC(=O)c1cc(-c2ccco2)on1 was tested, and the “activity, negative = inhibition” value was inactive: -22.9%. O=C(O)c1ccc2c(=O)n3c(nc2c1)/C(=C/c1cccc(Cl)c1Cl)CC3 was tested, and the “activity, negative = inhibition” value was inactive: -29.6%. With Cc1ccc(NC(=O)COCc2cc(-c3cccs3)on2)cc1Cl the Potency was inconclusive: 37.9 µM [inhibitor, single point]. With O=C(NN=Cc1cccc([N+](=O)[O-])c1)c1cccc2ccccc12 the “activity, negative = inhibition” value was inactive: -21%. In the case of COc1ccc(N2C(=O)/C(=C\c3ccco3)N=C2SCC(N)=O)cc1Cl, the Potency is reported as inconclusive: 37.9 µM [inhibitor, single point]. For CNS(=O)(=O)c1ccc2nc(NC(=O)/C=C/c3ccco3)sc2c1, the Potency was inconclusive: 23.9 µM [inhibitor, single point]. For O=C(CSc1ccc(-c2ccco2)nn1)N1CCCC1, the Potency was inconclusive: 15.1 µM [inhibitor, partial curve].
